From the supplement of paper PMC7726561
In all, about 1,100 sequences were measured (“thermal melting temperature (Tm) of peptide-HLA complex”: median about 58, lowest 2% from about 42 on). The list shows a part of the results.

The sequences below were run against HLA-A*02:01 (assay: thermal melting temperature (Tm) of peptide-HLA complex; higher = more thermostable pHLA complex). Conditions: C1R-A*02:01.
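Also: cell lysates heated 10 min at 37–73 °C, remaining pHLA pulled down with pan-class I antibody, peptides quantified by DIA-MS versus 37 °C, Tm where half the complex is lost.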

Sequence	thermal melting temperature [°C]
FLIEGTISRA	61.1
ILGPKPQGV	59.9
QLLETLNQL	41.4
SLLENLEKI	63.3
SLLTHIPTA	59.5
SLAGSLRSV	59.7
YMLDLQKQL	55.3
ILENPPEEMKL	52.1
YLMEGSYNKV	58
HIADVSHFI	55.3
FLSELTQQL	59.5
LLNDHIYVV	62.4
ALLDQALSNA	57.2
KILPDLNTV	56.8
VILEGELERA	56.7
VMFEDGVLMRL	52.3
